Results reported in the BET-seq Pho4 binding data (Le et al. 2018).
The other results are listed elsewhere or left out. The energies were worked out here from pooled read counts, against the library average; single values are noisy.

Target: T1, Pho4 (S. cerevisiae) (UniProt P07270)
T1 sequence: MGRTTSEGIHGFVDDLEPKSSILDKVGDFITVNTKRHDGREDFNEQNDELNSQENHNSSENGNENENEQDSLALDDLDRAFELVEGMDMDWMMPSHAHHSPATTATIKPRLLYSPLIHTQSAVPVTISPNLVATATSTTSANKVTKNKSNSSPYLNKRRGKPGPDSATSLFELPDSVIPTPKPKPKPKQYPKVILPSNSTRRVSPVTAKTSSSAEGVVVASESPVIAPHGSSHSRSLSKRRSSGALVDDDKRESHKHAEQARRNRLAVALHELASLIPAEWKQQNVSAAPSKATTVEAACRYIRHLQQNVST
Experiment: relative binding free energy (BET-seq); higher = weaker binding
Settings: reference: library average

Sequence	relative binding free energy [kcal/mol]
TTAGTCACGTGCTGGA	-0.09
AATAGCACGTGGTTTA	-0.07
GGGAGCACGTGTGTCT	-0.16
TGTAACACGTGAGTAG	0.03
AGTATCACGTGGGCGC	0.03
ATAAGCACGTGGGGGG	-0.23
TCGAACACGTGTTGGT	0.1
GTTGGCACGTGATGGA	0.01
GGGCCCACGTGTTGTG	-0.08
CTTGGCACGTGGGGAA	-0.13
AGGCGCACGTGGGCAG	-0.3
TTGAACACGTGGTGTT	-0.1
ATTCGCACGTGTTTGT	-0.06
TGTGACACGTGTATTA	-0.04
ATTTGCACGTGTGGGT	-0.01
AGAGGCACGTGGTTTA	-0.07
ATGTTCACGTGCGGCT	0.15
TTGTGCACGTGCTCTG	-0.08
TGAAACACGTGGAGGG	0.07
GGGGACACGTGAATCG	0.34
ATTCACACGTGGTAGT	-0.08
AGGGTCACGTGTCGGC	0.17
CTCGGCACGTGGTTTG	-0.17

Sequence	relative binding free energy [kcal/mol]
TAGTCCACGTGAGTTG	0.3
TGGGGCACGTGGAAGG	-0.05
GGGGTCACGTGATAAA	0.33
AGTGCCACGTGGGCAT	-0.21
AAGGGCACGTGGTGCA	-0.35
GCGAGCACGTGTAGGG	-0.24
CGTGGCACGTGTATAT	-0.09
AGCAACACGTGGTGTG	-0.08
ATGGACACGTGATGTT	0.03
TTGCGCACGTGGGGAT	-0.2
GAGGGCACGTGTCAGT	-0.13
GGGGACACGTGGTGCC	-0.1
ATTGTCACGTGGACTG	0.19
GGTTTCACGTGGCTGA	0.43
GGGCGCACGTGAAGGG	0.15
ATTTACACGTGTGTAT	0.13
TTAAGCACGTGTCAGT	-0.12
TGGTTCACGTGTGGGA	0.37
AGTTGCACGTGCATAT	-0.06
TGTGTCACGTGTTATA	0.11
ATAGTCACGTGCAGTG	-0.1
CTGGTCACGTGTGGTG	0.04
TTGGGCACGTGTGGGA	0.01

Sequence	relative binding free energy [kcal/mol]
ATTGTCACGTGATCTT	0.1
TTGACCACGTGTGTTG	-0.15
AAAGTCACGTGTTAAT	0.19
TTTATCACGTGACGTA	0.32
AGCGTCACGTGGATAG	0.22
GGCGGCACGTGGAGGT	-0.03
TATTACACGTGGTCGT	0.05
GGCGACACGTGCGTGT	-0.1
GAACTCACGTGGGGGG	0.13
GTGGTCACGTGGGGCA	-0.06
ATTTTCACGTGGTTTT	0.34
GCCTTCACGTGTTAGG	0.42
ACGAGCACGTGATTGT	0.11
GAGTGCACGTGAGCAT	0.37
ACTATCACGTGTGGGG	0.24
ATTTTCACGTGATAGT	0.33
TTCGTCACGTGAGTAT	0.26
ACGGTCACGTGGATGC	0.28
TGGCGCACGTGATGTA	0.11
TGAGTCACGTGAAGCG	0.37
GGCTGCACGTGGAGGG	-0.06
AATATCACGTGTGAGC	0.26
TTGATCACGTGTCAGT	0.06

Sequence	relative binding free energy [kcal/mol]
GTGGTCACGTGTGACT	0.22
TTGATCACGTGGCGTA	0.05
CGATACACGTGTGTGA	0.22
ATGTTCACGTGAGGAT	0.31
TTATACACGTGGGAAT	0.09
TGGTCCACGTGTCGAG	0.15
TAAGTCACGTGAGAAG	0.28
CAGGTCACGTGAGTGG	0.35
TTGGTCACGTGCGAAA	0.19
TACGTCACGTGGCTGT	0.14
TTCAGCACGTGGTTTG	-0.11
TGGTTCACGTGATGAT	0.38
GAGGTCACGTGTAATT	0.24
TTATACACGTGTATGT	0.06
CGATGCACGTGGTGTC	0
TGTGTCACGTGGTGAG	0.04
ATATGCACGTGACTGA	0.24
TGTTCCACGTGGAGAG	0.04
TGCTTCACGTGGTATA	0.15
TTGGCCACGTGGTAAT	0
GACGGCACGTGGTGAT	0.02
ACGTGCACGTGGGGCG	-0.25
TGGATCACGTGTGGGC	0.21

Sequence	relative binding free energy [kcal/mol]
GTCGGCACGTGGGTAG	-0.25
TCTGTCACGTGATTTT	0.17
CCTTGCACGTGTGAGG	0.08
TGTTCCACGTGATTGG	0.09
TTATTCACGTGGGGAC	0.18
AGAGTCACGTGTTTCT	0.13
GGTCGCACGTGAGTTG	0.2
AAAGACACGTGATGGG	0.04
ATAATCACGTGTTTTA	0.06
GTGGTCACGTGCGCGT	0.04
GGTGACACGTGCGTTG	-0.06
GTACGCACGTGTGGAA	0.17
TTGGACACGTGCGGTT	0.09
AAAAGCACGTGGTGGG	0.01
TTTTACACGTGCTTTA	0.02
GTGGTCACGTGACATA	0.4
AGTTGCACGTGGTTAA	-0.06
TGGTTCACGTGACTGT	0.34
TGGATCACGTGGTATC	0.13
ATTCTCACGTGTGTTG	0.17
TTGAACACGTGTGTGC	0.09
GCGTACACGTGAGTGG	0.27
TTTGGCACGTGTGAGT	0.1
